Assay results taken from patent US12662541B2, “Antibody-drug conjugates against the receptor tyrosine kinase EphA5” (Rutgers, The State University of New Jersey, priority 2021, dated 2026).

B1: VH0/VK1: control antibody produced by transient transfection, chimeric VH0 with humanized VK1 (protein)
heavy chain: EVTLKESGGGLVQPGGSRKLSCAASGFTFSTFGIHWVRQAPEKGLEWVAYISGASTTIYYADTVKGRFTISRDNPKNTLFLQMTSLRSEDTAMYYCARYGTSFPYGLDYWGQGTSVTVSSASTKGPSVFPLAPSSKSTSGGTAALGCLVKDYFPEPVTVSWNSGALTSGVHTFPAVLQSSGLYSLSSVVTVPSSSLGTQTYICNVNHKPSNTKVDKRV[letters of human IgG1 Fc left out]
light chain: DIVMTQSPGSLAVSLGERATINCKASQSVDYDGDSYMNWYQQKPGKAPKLLIYGASNLESGIPDRFSGSGSGTDFTLTISRLEEEDAASYYCQQSNEDPFTFGQGTKLEIKRTVAAPSVFIFPPSDEQLKSGTASVVCLLNNFYPREAKVQWKVDNALQSGNSQESVTEQDSKDSTYSLSSTLTLSKADYEKHKVYACEVTHQGLSSPVTKSFNRGEC
B2: VH4Vk3-ThioBridge®-VCP-MMAE (conjugate)
heavy: B1 heavy chain with T3Q, K5V, R18L, E42G, P75S, F80Y, T84N, S88A, M93V, S115L
light: B1 light chain with G9D, E84P, S89V
B3: VH4Vk3-ThioBridge®-(VCP-SN-38)2 (conjugate)
heavy: B1 heavy chain with T3Q, K5V, R18L, E42G, P75S, F80Y, T84N, S88A, M93V, S115L
light: B1 light chain with G9D, E84P, S89V
B4: VH5Vk3-ThioBridge®-(VCP-SN-38)2 (conjugate)
heavy: EVQLVESGGGLVQPGGSLKLSCAASGFTFSTFGIHWVRQAPGKGLEWVAYISGASTTIYYADSVKGRFTISRDNSKNTLYLQMNSLRAEDTAVYYCARYGTSFPYGLDYWGQGTLVTVSSASTKGPSVFPLAPSSKSTSGGTAALGCLVKDYFPEPVTVSWNSGALTSGVHTFPAVLQSSGLYSLSSVVTVPSSSLGTQTYICNVNHKPSNTKVDKRV[letters of human IgG1 Fc left out]
light: B1 light chain with G9D, E84P, S89V

How the values were obtained:
rhEphA5 antigen = target: T1, rhEphA5 antigen (Homo sapiens, UniProt P54756); test: kd (1/s)
T1 construct: purchased R and D systems 3036-A5
T1 sequence (P54756 25-1037 limits assumed): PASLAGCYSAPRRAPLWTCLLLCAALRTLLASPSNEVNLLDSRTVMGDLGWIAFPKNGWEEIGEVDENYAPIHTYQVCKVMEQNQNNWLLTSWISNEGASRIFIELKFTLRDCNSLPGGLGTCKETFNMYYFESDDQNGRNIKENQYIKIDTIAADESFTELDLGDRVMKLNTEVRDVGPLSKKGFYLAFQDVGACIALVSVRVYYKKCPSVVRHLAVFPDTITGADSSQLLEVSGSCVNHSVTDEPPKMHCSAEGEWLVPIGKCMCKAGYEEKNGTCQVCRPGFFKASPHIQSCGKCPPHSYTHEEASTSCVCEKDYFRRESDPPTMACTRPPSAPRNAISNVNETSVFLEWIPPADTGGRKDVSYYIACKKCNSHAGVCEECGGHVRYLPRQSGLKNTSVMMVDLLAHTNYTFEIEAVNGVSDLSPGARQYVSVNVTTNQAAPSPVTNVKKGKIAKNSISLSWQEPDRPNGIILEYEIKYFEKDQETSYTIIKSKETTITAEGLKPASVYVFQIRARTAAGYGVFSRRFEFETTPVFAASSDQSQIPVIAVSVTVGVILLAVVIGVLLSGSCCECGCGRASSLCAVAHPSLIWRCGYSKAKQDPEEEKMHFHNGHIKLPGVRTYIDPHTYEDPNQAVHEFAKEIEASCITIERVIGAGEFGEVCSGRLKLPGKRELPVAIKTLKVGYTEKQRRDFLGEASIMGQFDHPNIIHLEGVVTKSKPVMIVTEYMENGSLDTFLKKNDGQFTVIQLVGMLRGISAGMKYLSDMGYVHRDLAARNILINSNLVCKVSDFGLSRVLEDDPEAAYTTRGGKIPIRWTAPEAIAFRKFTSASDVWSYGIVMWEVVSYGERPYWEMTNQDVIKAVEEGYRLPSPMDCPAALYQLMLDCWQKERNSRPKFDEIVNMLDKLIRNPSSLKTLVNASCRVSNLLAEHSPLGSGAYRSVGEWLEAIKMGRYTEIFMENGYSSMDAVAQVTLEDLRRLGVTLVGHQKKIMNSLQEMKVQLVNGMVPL
Experimental: Table printed on a drawing sheet, FIG. 13
Head of the field: kd (1/s)
The patent's description of the figure: FIG. 13 is a table illustrating the single cycle kinetic parameters of chimeric (VH0/VK0) and humanized 11C12 variants (tested as cell culture supernatants) binding to rhEphA5 antigen as determined using the Biacore T200. The relative KD was calculated by dividing the KD of the humanized variant by that of the VH0/VK0 (top row) assayed in the same experiment. The variants marked with ‘*’ have KD values that are within two-fold of, or are better than, the chimeric antibody. The chimeric and selected variants marked in ‘#’ were identified as the main leads for purification. […]
Where the first naming reader finds the target: description_of_the_figure: humanized 11C12 variants (tested as cell culture supernatants) binding to rhEphA5 antigen as determined using the Biacore T200

[1] = system: A549 cell line-derived human lung cancer xenograft model; test: A549 xenograft efficacy; type: in vivo, mice
[2] = Body weight of tumor-bearing mice pre- and post-treatment, cell line xenograft studies
[3] = system: H522, H460, A549 and H1299 cells; test: Incucyte cytotoxicity of ADC (% confluence); type: cell-based, human
[4] = system: patient-derived xenograft model (PDX) of breast cancer, ER, PR, and HER2 negative invasive ductal carcinoma; test: Triple-negative breast cancer PDX efficacy (Example 4); type: in vivo, mice; settings: 5 doses of 10 mg/kg every 7 days; controls reached endpoints within 16 days
Experimental: Lastly, a study was performed using a patient-derived xenograft model (PDX) of breast cancer. Briefly, tissue from an ER, PR, and HER2 negative (triple-negative) invasive ductal carcinoma breast tumor was xenografted into mice. […] After engraftment but prior to treatment, xenograft tissue was evaluated for the expression of EphA5 (FIG. 98, left). Treatment consisted of 5 doses of MMAE-conjugate ADC at 10 mg/kg administered every 7 days.

[5] = system: H460-derived xenograft model of human lung cancer; test: H460 xenograft efficacy; type: in vivo, mice; settings: 10 mg/kg every 5 days, 3 doses; for tumors with full regression: group 3 n=9 (MMAE ADC), n=8 (SN-38 ADC)
[6] = system: H522-derived Xenograft Model of Human Lung Cancer; test: H522 xenograft efficacy; type: in vivo, mice; settings: 10 mg/kg i.v. weekly, 3 doses, FIGS. 72, 74, 76
[7] = system: PDX model TM00096 (BR085F), triple negative breast cancer; test: PDX TM00096 efficacy; type: in vivo, mice; settings: for tumor weight compared to PBS (placebo): TM00096, 4 weekly doses of 10 mg/kg; for tumor response (tumor volume): TM00096, 10 mg/kg weekly tail vein, 5 doses (ADC1, ADC2) or 4 doses (ADC3, ADC4), here ADC2 = VH4Vk3-ThioBridge-VCP-MMAE
Experimental: Test Animals. The present studies were performed using female NSG™ mice implanted with the PDX model TM00096 (BR085F) purchased from Jackson Laboratories. These mice are extremely immunodeficient and carry two mutations: severe combined immune deficiency (scid) and a complete null allele of the IL2 receptor common gamma chain (IL2rg^null). The scid mutation is a mutation in the DNA repair complex protein Prkdc and renders the mice B and T cell deficient. The IL2rg^null mutation prevents cytokine signaling through multiple receptors, leading to a deficiency in functional NK cells. This severe immunodeficiency allows the implantation of patient derived xenografts (PDX) and growth of human tissue-based tumors in the mice. These tumors have similar characteristics to the human tumors from which they are derived (e.g., gene expression) and are predictive of human response to therapeutic agents. The initial and final diagnosis of the patient from which the model was derived was invasive ductal carcinoma AJCC IIA/Grade 3. The primary site of the tumor was breast, sample for implantation was obtained from the metastatic site (lung). The tumor was not treatment naïve. The patient from which the sample was derived was a person. The sample was obtained by surgical resection. The host strain of the sample for engraftment was NOD.Cg-Prkdc^scid Il2rg^tm1Wj1/SzJ (aka NSG or NOD Scid gamma).
Mice received 5 weekly doses of ADC1 or ADC2, or 4 weekly doses of ADC3 or ADC4 at 10 mg/kg or PBS via tail vein injection. Animals were dosed on days 0, 7, 14, 21 and 28 followed by 2 weeks of observation (day 28-40) without treatment (or until cessation of study). The number of mice used per group averaged n=7-10 with some mice presenting with more than 1 tumor implanted subcutaneously. In those cases, each tumor size was measured and recorded independently. Measurements were performed 2-3 times weekly with the aid of a digital caliper (Fisherbrand™ Traceable™ Digital Carbon Fiber Calipers). Studies lasted an average of 40 days or until maximum allowed tumor volume was reached and/or skin ulceration was noted. All studies included a control group of an equal number of mice to those in the treatment group. Control groups received PBS tail vein injections and were submitted to the same handling procedures as TA treated mice. First treatment was administered when tumors reached 100-150 mm3 volume.

[8] = Body weight and tolerability of PDX-bearing mice before and after treatment; settings: TM00096-bearing mice, 10 mg/kg weekly; ADC2 = VH4Vk3-ThioBridge-VCP-MMAE
[9] = H460 xenograft, 10 mg/kg every 5 days, 3 doses
[10] = H522 xenograft, 10 mg/kg weekly, 3 doses

Molecule | kd (rhEphA5 antigen) | tumors with full regression ([1]; ADC-treated n=5, 10 mg/kg i.v.) | tumors with partial regression ([1]; ADC-treated n=5, sustained for the 32 days of the study) | change in body weight, first dosing vs termination ([2]; A549 xenograft, 10 mg/kg) | change in body weight, first dosing vs termination [2, 9] | change in body weight, first dosing vs termination [2, 10] | ADC induced cell death (decrease of confluence) ([3]; EphA5 expression H522 (++++)>H460 (+++)>A549 (++)=H1299 (++)) | tumor growth [4] | tumors with full regression [5] | tumor regression [6] | tumor weight compared to PBS (placebo) [7] | tumor response (tumor volume) [7] | ADC induced cell death (decrease of confluence) [3] | change in body weight before and after treatment [8] | tumor response ([1]; 10 mg/kg i.v. weekly, 3 doses) | tumors with partial regression ([5]; n=9)
B1 | 0.00137 s⁻¹ |  |  |  |  |  |  |  |  |  |  |  |  |  |  | 
B2 |  | 4 tumors | One tumor showed partial regression | no significant changes in body weight | no changes in body weight | no significant changes in body weight | increasing amounts of ADC induced cell death which is dependent on the levels of expression of the target EphA5 | little measurable tumor growth | 2 tumors | Full regression was observed for all ADC-treated tumors |  |  |  |  |  | 
B3 |  |  |  | no significant changes in body weight | no changes in body weight | no significant changes in body weight |  |  | 1 tumors | Full regression was observed for all ADC-treated tumors | no significant reduction in weight as compared to placebo | delayed tumor growth followed by rapid re-growth and early termination due to tumor burden; also recorded: modest in vivo anti-tumor activity | increasing amounts of ADC induced cell death which is dependent on the levels of expression of the target EphA5 | no significant changes in body weight |  | 
B4 |  |  |  | No significant differences in the body weights | no significant changes in body weight |  |  |  |  |  | slightly reduced in weight compared to the PBS control group | delayed tumor growth followed by rapid re-growth and early termination due to tumor burden; also recorded: modest in vivo anti-tumor activity | increasing amounts of ADC induced cell death which is dependent on the levels of expression of the target EphA5 | no significant changes in body weight | Partial regressions of tumors treated with the ADC VH5Vk3-ThioBridge®-(VCP-SN-38)2 (10 mg/kg) were observed until day 14, after which tumors progressed steadily until day 20 | 7 tumors

Positions count from the first letter of the chain named. Entries after “also recorded” stand apart in the source; their conditions may differ. Read-outs that look alike come from different tables or passages of the source.
